# Results from PubChem BioAssay AID686978 (National Center for Advancing Translational Sciences (NCATS), 2013).
# “And” between values parts separate entries of the source, which are not always exact repeats. Identical values can stand only once. Screen size: about 420,000 compounds; about 64,000 (15%) were called active. The inconclusive results got no clear call from the source; some entries with a clear call stand among them for comparison. The call rests on the fitted dose curve; in most records, active means well fitted inhibition curve with a large enough effect; inconclusive means small, poorly fitted or top-dose-only effect; inactive means flat fitted curve, though single readings scatter. Potencies of inconclusive entries are doubtful fits and often do not repeat.
# Experiment: qHTS for Inhibitors of human tyrosyl-DNA phosphodiesterase 1 (TDP1): qHTS in cells in absence of CPT; further: nearly all actives have a fitted effect of over 55% in size
# Details: DT40 Tdp1-/- hTDP1 cells, no CPT, ATP luminescence, 48 h; activity change, negative = growth inhibition: at 46.2 µM (top of the series)
# In short: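 A cellular qHTS used chicken DT40 cells lacking endogenous Tdp1 but carrying stably transfected human TDP1. Compounds were applied without camptothecin, and cell growth kinetics were judged by ATP-dependent luminescence after ≥48 hr.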
# On the % scale 0 is the no-effect control and ±100 the full control effect; potency means the concentration at half of the fitted maximal effect; tags describe the fitted curve by direction and shape.
Structure (SMILES),"activity change, negative = growth inhibition",Potency
Cc1ccc(CNC(=O)c2ccc(C#CC(C)(C)O)s2)cc1,inactive: -1.81%,
Cc1cccn2cc(-c3cccc(NC(=O)C(C)C)c3)nc12,,"inconclusive: 23.1 µM [inhibitor, single point]"
COc1cc(C(=O)NC(=S)N(CCc2ccccc2)CCc2ccccc2)cc(OC)c1OC,,active: 20.6 µM
CCN(CC)CCNC(=O)CN1N=C(c2ccc(OC)cc2)CCC1=O,inactive: -5.02%,
O=S(=O)(c1ccc(F)cc1)N(CCO)CC(O)Cn1c2ccccc2c2ccccc21 (stereo unspecified),,active: 16.4 µM
CCOC(=O)C1=C(CS(=O)(=O)c2ccc(F)c(C)c2)NC(=O)NC1c1ccc(O)c(O)c1 (stereo unspecified),inactive: -11.1%,
Cc1ccccc1OCCn1nc(C(=O)O)c2ccccc2c1=O,,"inconclusive: 14.6 µM [inhibitor, partial curve, poor fit]"
O=C(Nc1ccc(C(=O)N2CCCCC2)cc1)[C@H]1O[C@@H](n2ccc(=O)[nH]c2=O)[C@H](O)[C@@H]1O,inactive: 3.73%,
CC(=O)NC(c1ccccc1)c1nc(-c2cccc(C#N)c2)cs1 (stereo unspecified),,"inconclusive: 20.6 µM [inhibitor, single point]"
Cc1ccc(C)c(S(=O)(=O)N(C)C2CCS(=O)(=O)C2)c1 (stereo unspecified),inactive: -12.5%,
CCOC(=O)/C=C(C)/C=C/C=C(C)/C=C/c1c(C)cc(OC)c(C)c1C,,"inconclusive: 33.5 µM [inhibitor, single point]"
O=C(Cn1c(=O)n(Cc2ccco2)c(=O)c2sc3ccccc3c21)Nc1ccccc1C(F)(F)F,,"inconclusive: 29.1 µM [inhibitor, single point]"
CC(C)CN(CC(C)C)c1nc(N)c(C#N)c(CC#N)c1C#N,,"inconclusive: 20.6 µM [inhibitor, single point]"
Cc1ccc(-c2nc3cc(Cl)ccc3o2)cc1,inactive: 0.134%,
CC(=O)C1=CCC(c2ccc(Cl)cc2)N(S(=O)(=O)c2ccc(C)cc2)C1 (stereo unspecified),,active: 16.4 µM
COc1ccc(NC(=O)C[C@H]2C(=O)N(CCc3ccccc3)C[C@@H]2c2ccc(OC)cc2)cc1,,"inconclusive: 29.1 µM [inhibitor, single point]"
CSc1cccc(NC(=S)Nc2ccc(F)cc2)c1,,"inconclusive: 20.6 µM [inhibitor, single point]"
C#CCN(Cc1ccccc1)S(=O)(=O)C=C,,"inconclusive: 35.5 µM [inhibitor, single point] and inconclusive: 29.1 µM [inhibitor, single point]"
CCc1ccc(NC(=O)C2CCN(C(=O)[C@@H]3Cc4ccccc4CN3)CC2)cc1,inconclusive: -30.8% [inhibitor],
COc1ccccc1N1CCN(/N=C/c2ccc([N+](=O)[O-])cc2)CC1,,"inconclusive: 20.6 µM [inhibitor, single point]"
COc1ccc(C2=C(C(C)=O)Sc3nnc(-c4ccccc4)n3N2C(C)=O)cc1,inactive: -5.07%,
C1=Nc2c(NCc3ccccc3)ncnc2Oc2ccccc21,,active: 1.03 µM
CCCc1[nH]nc2c1C(c1cn[nH]c1-c1ccc(F)cc1)C(C#N)=C(N)O2 (stereo unspecified),,active: 10.3 µM
CCCN(CCC)CCNC(=O)CCC(=O)Nc1ccc2nc(N3CCN(C)CC3)cc(C)c2c1,inactive: -22.6%,

Structure (SMILES),"activity change, negative = growth inhibition",Potency
Cc1ccc(-n2nc(C)c3c(C)c(CCC(=O)NCc4ccccc4Cl)c(C)nc32)cc1,,"inconclusive: 7.31 µM [inhibitor, partial curve]"
COCCn1c(Cc2ccccc2)nnc1SCc1ccc([N+](=O)[O-])cc1,inconclusive: -35.2% [inhibitor],
O=C(Cc1ccc(Br)cc1)NC1CCN(Cc2ccccc2)CC1,,"inconclusive: 25.9 µM [inhibitor, single point]"
NS(=O)(=O)c1ccc(CNC(=S)NC(=O)c2ccco2)cc1,inactive: -21.3%,
CC(=O)Nc1cccc(-c2cc(NC(C)=O)c3ncc(-c4ccccc4)n3c2)c1,,"inconclusive: 29.1 µM [inhibitor, single point]"
CC(C)(C)C(=O)NC(Nc1cccc2cccnc12)C(Cl)(Cl)Cl (stereo unspecified),,active: 16.4 µM
COc1cc(NC(=O)c2cc3cc4cc(OC)ccc4nc3o2)cc(OC)c1,,"inconclusive: 16.4 µM [inhibitor, single point]"
O=C(NC(=S)Nc1ccc(O)cc1)c1ccccc1Cl,inactive: 2.83%,
CC1(C)CNC(=O)c2sc(N3CCOCC3)nc2C1,,active: 20.6 µM
CCCCC[C@@H](C)N1C[C@@H](COCc2ccccc2)Oc2cc(N3CC[C@H](O)C3)ccc2S1(=O)=O,,active: 16.4 µM
Cc1ccc(-c2noc(CSc3nnnn3C3CCCCC3)n2)cc1,,"inconclusive: 18.4 µM [inhibitor, single point]"
O=C(CSc1nc(C2CC2)nc2ccccc12)Nc1ccccc1N1CCOCC1,,"inconclusive: 16.4 µM [inhibitor, single point]"
COc1cc(-c2cc(-c3ccc(F)cc3)nc(N)c2C#N)ccc1O,,"inconclusive: 11.6 µM [inhibitor, partial curve, poor fit]"
Cc1cc(C)c(C(=O)COC(=O)C2CCN(c3ccc(C(F)(F)F)cn3)CC2)cc1C,,"inconclusive: 29.1 µM [inhibitor, single point]"
COc1cccc(CCc2nnc(CCC(=O)NC(C)c3c(C)nn(C)c3C)o2)c1 (stereo unspecified),inactive: 13.9%,
CC(=O)NCCc1nc2ccccc2n1CCOc1ccccc1C,,"inconclusive: 29.1 µM [inhibitor, single point]"
O=C1CN(C(=O)/C=C/c2cc(Br)ccc2F)CCN1,inactive: 2.23%,
CCOc1cc(C2NC(=O)c3c(sc4c3CCN(C)C4)N2)ccc1OC(=O)c1ccc(F)cc1 (stereo unspecified),inactive: -16.2%,
O=C(Nc1cc(Sc2ccccn2)cc([N+](=O)[O-])c1)c1cccc(Cl)c1,,"inconclusive: 18.4 µM [inhibitor, single point]"
Cc1ccc(NC2CCCN(C(=O)c3ccoc3C)C2)cc1C (stereo unspecified),,"inconclusive: 18.4 µM [inhibitor, single point]"
CN(C)c1ccc(S(=O)(=O)NCC(=O)OCC(=O)Nc2cc(Cl)cc(Cl)c2)cc1[N+](=O)[O-],inactive: -4.92%,
O=C1CCCN1c1ccc(C(=O)N(Cc2nnc(-c3ccc(Cl)cc3)o2)C2CC2)cc1,,"inconclusive: 29.1 µM [inhibitor, single point]"
CCOC(=O)N1CCN(S(=O)(=O)c2ccc(OC)c(Br)c2)CC1,,"inconclusive: 16.4 µM [inhibitor, single point]"
Cc1nccn1CC(=O)N/N=C/c1ccccc1O,,active: 20.6 µM

Structure (SMILES),"activity change, negative = growth inhibition",Potency
COc1ccc(NC(=S)Nc2ccc(F)cc2)cc1,,active: 25.9 µM
CC(C)C[C@H](NC(=O)c1nc[nH]c1C(=O)NCC(=O)OC(C)(C)C)C(=O)OCc1ccccc1,,"inconclusive: 25.9 µM [inhibitor, single point]"
Cc1c(OCC(=O)NC2CC(C)(C)NC(C)(C)C2)ccc2c3c(c(=O)oc12)CCC3,inactive: -25.5%,
COc1cc(/C=C2\CC/C(=C\c3cc(OC)c(OC)c(OC)c3)C2=O)cc(OC)c1OC,,active: 10.3 µM
CCCCCCOc1ccc(N2C(=O)CC(N3CCC(C(=O)OCC)CC3)C2=O)cc1 (stereo unspecified),,"inconclusive: 25.1 µM [inhibitor, single point]"
CC(CCc1ccccc1)NC(=O)c1ccc(C(=O)NC(C)CCc2ccccc2)cc1 (stereo unspecified),,"inconclusive: 25.9 µM [inhibitor, partial curve]"
Cc1cccc(N(C(=O)c2ccc(Cl)cc2)C2CS(=O)(=O)CC2OC(=O)c2ccc(Cl)cc2)c1 (stereo unspecified),,"inconclusive: 16.4 µM [inhibitor, single point]"
COC(=O)c1sc2ccccc2c1S(=O)(=O)N1CCN(c2ccc(C(C)=O)cc2)CC1,,"inconclusive: 16.4 µM [inhibitor, single point]"
Cc1ccc(-n2nc(CO)c(C(=O)NC(C)c3ccccc3)n2)cc1C (stereo unspecified),,"inconclusive: 29.1 µM [inhibitor, single point]"
O=C(NCCOc1ccc(Cl)cc1)c1cccc(S(=O)(=O)N2CCCC2)c1,,"inconclusive: 16.4 µM [inhibitor, partial curve]"
Cc1ccc(CCNC(=O)c2ccc(CSc3nc4ccncc4n3Cc3ccc(F)cc3)cc2)cc1,,active: 16.4 µM
COc1nc(Cl)cn(-c2ccc(Cl)cc2)c1=O,inactive: 2.64%,
CN(Cc1ccccc1)C(=O)COC(=O)/C=C/c1ccc2c(c1)OCO2,inactive: 5.6%,
Cc1ccc(-c2nnc(Nc3ccc(O)cc3)c3ccccc23)cc1S(=O)(=O)NCCO,,"inconclusive: 16.4 µM [inhibitor, single point]"
CN(C)S(=O)(=O)N1CCC(Oc2cccc(C(=O)NCCCC3CCCC3)c2)CC1,,active: 7.31 µM
CCC(C(=O)NCCc1ccc(SC)cc1)n1nc(C)c2c(C)n(-c3ccc(C)cc3)nc2c1=O (stereo unspecified),,active: 16.4 µM
COc1ccc(OCc2cc(C(=O)N3CCN(CC4CC4)CC3)no2)c(Cl)c1,,"inconclusive: 29.1 µM [inhibitor, single point]"
CCS(=O)(=O)N1Cc2ccccc2CC1C(=O)N(C)CC(=O)Nc1cccc(F)c1 (stereo unspecified),inactive: -0.574%,
COc1ccc(Cl)cc1C(=O)Nn1c(-c2cccs2)nc2ccccc2c1=O,,"inconclusive: 29.1 µM [inhibitor, single point]"
CCCCCOc1ccc(NC(=O)CSc2cccc3cccnc23)cc1,,"inconclusive: 29.1 µM [inhibitor, single point]"
COCCNC(=O)c1cccc(S(=O)(=O)N2CC3(C)CC2CC(C)(C)C3)c1 (stereo unspecified),inactive: -15.5%,
COc1ccc(/C=N/NS(=O)(=O)c2ccccc2)cc1OC,,active: 23.1 µM
CC(C)(C)c1cc(NCCCn2ccnc2)n2ncc(-c3ccc(Cl)cc3)c2n1,,active: 18.4 µM
